Data: PubChem BioAssay AID1347073 (National Center for Advancing Translational Sciences (NCATS), 2019)
About 200 (0.44%) of roughly 45,000 compounds were called active. Roughly 7% stayed inconclusive and do not appear here. The call rests on the fitted dose curve; in most records, active means well fitted activation curve with a large enough effect; inconclusive means small, poorly fitted or top-dose-only effect; inactive means no such curve, though single readings can be large or run the other way. This is one part of the list.

Test: qHTS of TDP-43 Inhibitors: NCGC Sytravon Library Screen; further: nearly all actives have a fitted effect of over 55% in size; on growth rescue (activation): 0% is about no effect
Conditions: yeast TDP-43 toxicity rescue, BacTiter-Glo growth, 24 h; series mostly up to 46.1 µM; growth rescue (activation): at the top concentration
Outline: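 TDP-43-expressing yeast, pregrown in raffinose, seeded at OD600 0.02 in galactose medium with compound for 24 hr at 30 deg C. Growth read by BacTiter-Glo luminescence, so rescue of toxicity appears as activation.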
Potency means the concentration at half of the fitted maximal effect.

| Structure (SMILES) | growth rescue (activation) | Potency |
| --- | --- | --- |
| CC1(C(=O)NS(=O)(=O)c2cccc(F)c2)CCN1C(=O)Cc1cccs1 (stereo not drawn) | inactive: -5.77% |  |
| CN(C(=O)COC(=O)/C=C/c1cccc([N+](=O)[O-])c1)C1CCS(=O)(=O)C1 (stereo not drawn) | inactive: 9.6% |  |
| CC(NC(=O)CN1C(=O)NC2(CCCC2)C1=O)c1ccc(Cl)cc1Cl (stereo not drawn) | inactive: 9.79% |  |
| COCCN(C(=O)CSc1nnc(C)n1-c1ccccc1)c1c(N)n(Cc2ccccc2)c(=O)[nH]c1=O | inactive: 18.6% |  |
| O=C(Nc1ccc(C(=O)N2CCOCC2)cc1)Nc1cccc2ccccc12 | inactive: -9.82% |  |
| CCOC(=O)c1c2ccc(OCC(=O)N/N=C/c3ccc(C)cc3)cc2n2ccccc12 | inactive: 10.4% |  |
| O=C(Cc1ccccc1)N1CCN(S(=O)(=O)c2ccc([N+](=O)[O-])cc2)CC1 | inactive: 2.44% |  |
| O=C(CCC(=O)N/N=C/c1ccc(Br)o1)N/N=C/c1ccc(Br)o1 | inactive: 1.02% |  |
| O=C(Nc1ccccc1)Nc1cccc2ccccc12 | inactive: 11.6% |  |
| CC1=NN(c2ccccc2)C(=O)C1N=Nc1cccc(O)c1 (stereo not drawn) | inactive: 0.702% |  |
| Cc1nnc(NC(=O)c2cc3ccccc3o2)s1 | inactive: 14% |  |
| CN(C)CCCN(Cc1cc2cc3c(cc2[nH]c1=O)OCO3)C(=S)NCc1ccco1 | inactive: 3.99% |  |
| Cc1ccc(S(=O)(=O)N2CCCC2C(=O)Nc2ccc(Br)cc2)cc1 (stereo not drawn) |  | active: 12.6 µM |
| COc1cc(CN2CCNC(=O)C2CC(=O)N2CCCO2)cc(OC)c1 (stereo not drawn) | inactive: -18.4% |  |
| O=C(O)/C(=C\c1cccs1)Sc1nnc(-c2ccc(F)cc2)o1 | inactive: 11.2% |  |
| COc1c(C)cc(C(=O)C2CCCN(C(=O)Cn3ccc(C)n3)C2)cc1C (stereo not drawn) | inactive: 11.4% |  |
| O=C(O)c1cccc(NS(=O)(=O)c2ccc3c(c2)OCCCO3)c1 | inactive: 7.47% |  |
| O=C(O)c1cccc(-c2csc(C(O)c3ccc(F)cc3)n2)c1 (stereo not drawn) | inactive: 12.9% |  |
| C=CCOc1c(Br)cc(CNn2cn[nH]c2=S)cc1OC | inactive: 17.9% |  |
| CC(=O)C1=C(O)CC(C)(C)CC1=NCc1nc2ccccc2[nH]1 | inactive: 8.75% |  |
| CCNC(=O)NC(=O)C(C)OC(=O)C1CCN(S(=O)(=O)c2ccccc2F)CC1 (stereo not drawn) | inactive: 0.406% |  |
| O=C(C(O)c1ccccc1)N1N=C(c2ccccc2)CC1(O)C(F)(F)F (stereo not drawn) | inactive: -5.44% |  |

| Structure (SMILES) | growth rescue (activation) | Potency |
| --- | --- | --- |
| N#Cc1nc(-c2ccco2)oc1NCCc1ccccc1 | inactive: -15.5% |  |
| CCOc1ccc(-n2c(C)cc(C(=O)NS(=O)(=O)c3ccc(C)cc3)c2C)cc1 | inactive: -12.8% |  |
| Cc1[nH]nc2c1C(c1ccsc1)C1=C(CC(C)(C)CC1=O)N2 (stereo not drawn) | inactive: -20.1% |  |
| Cc1sc2ncn(CC(=O)NCC(=O)N3CCN(c4ccc(F)cc4)CC3)c(=O)c2c1C | inactive: 12.8% |  |
| COc1ccccc1NS(=O)(=O)c1ccc(C)c(C(=O)NC2CCN(Cc3ccccc3)CC2)c1 | inactive: 0.345% |  |
| Cc1nc2scc(-c3ccc(C(C)(C)C)cc3)c2c(=O)n1N | inactive: 22.6% |  |
| CN1C(=O)C(CC(=O)Nc2ccc(Cl)cc2)N(Cc2ccco2)C1=S (stereo not drawn) | inactive: 18.1% |  |
| CC[n+]1c(/C=C2\C=C(C)CC(C)C2)sc2ccccc21 (stereo not drawn) | inactive: 12.7% |  |
| CC(C)c1ccc(C(=O)Nc2cccnc2)cc1 | inactive: 20.3% |  |
| Cc1cc(C)n2c(Br)c(CN3CCCC(C)C3)nc2n1 (stereo not drawn) | inactive: 4.42% |  |
| O=S(=O)(c1ccc(NCCCO)nc1)N1CCOCC1 | inactive: 15.5% |  |
| CC1CC(C)(C)CC2(C1)NC(=O)N(CC(=O)N(C)Cc1nc3ccccc3c(=O)[nH]1)C2=O (stereo not drawn) | inactive: 1.91% |  |
| O=C(O)c1ccc2c(c1)C(=O)N(c1ncccn1)C2=O | inactive: 1.15% |  |
| Cc1ccccc1-c1nc(-c2ccccn2)no1 | inactive: -39.8% |  |
| S=C(Nc1ccccc1)N1CCN(Cc2ccccc2)CC1 | inactive: -9.05% |  |
| COc1ccc(CNc2nc(-c3cccnc3)nn2C(=O)C(C)C)cc1 | inactive: 6.54% |  |
| COc1ccc(NC(=O)NNC(=O)c2ccccc2-n2cccc2)cc1OC | inactive: 19% |  |
| CC#CC(=O)N1CCC(Oc2cccc(C(=O)NCc3ccccn3)c2)CC1 | inactive: 8.95% |  |
| CCCN1C(=O)COc2ccc(C(=O)c3ccccc3C(=O)O)cc21 | inactive: 7.13% |  |
| CCNC(=S)NNc1nc(N2CCOCC2)nc(N2CCOCC2)n1 | inactive: -18% |  |
| Cc1cc(C)cc(OCc2nnc(N)s2)c1 | inactive: -7.07% |  |
| Cc1ccc(NC(=O)C2C3C=CC(O3)C2C(=O)O)cc1C (stereo not drawn) | inactive: 5.55% |  |

| Structure (SMILES) | growth rescue (activation) | Potency |
| --- | --- | --- |
| N#C/C(=C\c1ccc(F)cc1)c1nc(-c2ccco2)cs1 | inactive: 15.1% |  |
| Cc1ccc(C)c(S(=O)(=O)N2CCN(C(=O)[C@H](Cc3ccccc3)NC(=O)c3ccco3)CC2)c1 | inactive: -2.87% |  |
| Cc1cc(C)cc(Cn2c3ccc(NC(=O)NCc4ccc(F)cc4)cc3c(=O)n2C)c1 | inactive: 17.5% |  |
| CC(NC(=O)C1CCN(C(=O)c2ccc(F)cc2)CC1)c1ccc(S(N)(=O)=O)cc1 (stereo not drawn) | inactive: 5.53% |  |
| CCOc1cc(NC(=S)NCCCN2CCOCC2)c(OCC)cc1NC(=O)C(C)C | inactive: -14.8% |  |
| Oc1cccc(C(O)CNCc2ccc(-c3ccccc3)cc2)c1 (stereo not drawn) | inactive: -0.88% |  |
| COc1ccc(NC(=O)CN2CCC(C(=O)c3ccc(F)cc3)CC2)c(OC)c1 | inactive: 17.6% |  |
| Cc1onc(-c2ccccc2Cl)c1C(=O)N1CCOC12CCCCC2 | inactive: 17.8% |  |
| Cc1cc(C)c2cc(C#N)c(N3CCCN(C(=S)NCCCN(C)C)CC3)nc2c1 | inactive: 3.5% |  |
| Cc1nc2scc(-c3ccccc3)c2c(=O)n1/N=C/c1ccco1 | inactive: 3.54% |  |
| O=C(CNC(=O)c1ccc(Cl)cc1)N/N=C/c1cccnc1 | inactive: 3.46% |  |
| CN1CCN(c2ccc(S(=O)(=O)N3CCCCC3)cn2)CC1 | inactive: 0.726% |  |
| CN(c1ccccc1)S(=O)(=O)c1cccc(NC(=O)CSc2n[nH]c(N)n2)c1 | inactive: 36.1% |  |
| CCn1c(CNC(=O)c2ccco2)nnc1SCCOc1ccccc1 | inactive: 4.66% |  |
| O=C(CC1NC(=S)NC1=O)c1ccc(Cl)cc1 (stereo not drawn) | inactive: -4.63% |  |
| CCOC(=O)C1(CC2CCCCO2)CCN(Cc2c(C)cc(C)cc2-n2cccn2)CC1 (stereo not drawn) | inactive: -6.79% |  |
| CCCCNC(=O)C1(C)CCCCN1C(=O)c1c(F)ccc(C)c1F (stereo not drawn) | inactive: 17.3% |  |
| COC(=O)c1c(-c2ccc(C)cc2)csc1NC(=S)NC(=O)c1ccc(F)cc1 | inactive: -0.671% |  |
| COc1ccc(C(NC(=O)c2ccc(=O)[nH]c2)C(=O)Nc2ccc(C(C)C)cc2)cc1 (stereo not drawn) | inactive: 5.51% |  |
| CN(Cc1nc2ccccc2c(=O)[nH]1)C(=O)c1cc2c(s1)CCCCC2 | inactive: -4.57% |  |
| Cc1ccc(OCCC(=O)NCCc2ccc(S(N)(=O)=O)cc2)cc1 | inactive: -6.36% |  |
| Cc1ccccc1NC(=O)NC1(C(=O)N2CCN(C)CC2)CCCCC1 | inactive: 3% |  |

| Structure (SMILES) | growth rescue (activation) | Potency |
| --- | --- | --- |
| Cc1nc(Cl)c(C(=O)NCc2ccccc2)c(C)c1[N+](=O)[O-] | inactive: -8.24% |  |
| COc1ccc(C(=O)Nc2ccc(S(=O)(=O)Nc3ncccn3)cc2)cc1OC | inactive: 4.07% |  |
| CCn1c(SCC(=O)NCCc2ccccc2)nnc1-c1ccco1 | inactive: 4.55% |  |
| COCc1cc(C)nc2sc(C(=O)Nc3ccccc3Br)c(N)c12 | inactive: 12.2% |  |
| O=c1cc(/C=C/c2c(F)cccc2Cl)[nH]c2ccccc12 | inactive: -5.73% |  |
| COc1ccc(CC(=O)OCC(=O)Nc2ccc(F)cc2)cc1 | inactive: 13.9% |  |
| COc1cccc(C(O)c2nc(-c3cnn(C)c3)cs2)c1 (stereo not drawn) | inactive: 15.7% |  |
| O=C(Nc1ccc(OC(F)F)c(Cl)c1)c1ccccn1 | inactive: -0.422% |  |
| CCS(=O)(=O)N1CCC(NC(=O)C(Cc2cc(OC)ccc2OC)NC(C)=O)CC1 (stereo not drawn) | inactive: 2.19% |  |
| Nc1c(Cl)ncnc1N/N=C/c1ccccn1 | inactive: -70.4% |  |
| CN(C)S(=O)(=O)c1cccc(NC(=O)c2ccc(COc3ccccc3)cc2)c1 | inactive: 3.91% |  |
| COc1ccc(CCCC(=O)N/N=C\c2cccs2)cc1 | inactive: 12.7% |  |
| COc1ccc(NC(=O)/C=C/c2cc(Br)ccc2OC)cc1 | inactive: -32.1% |  |
| Cc1ccc(NC(=O)CN2C(=O)NC(C)(c3ccc4c(c3)OCO4)C2=O)cc1 (stereo not drawn) | inactive: 8.77% |  |
| CCc1nnc(NC(=O)c2ccc3c(=O)n4c(nc3c2)CCCCC4)s1 | inactive: -1.71% |  |
| O=S(=O)(c1ccccc1)n1nc(-c2ccc(Cl)cc2)nc1NCc1ccccc1 | inactive: 18.7% |  |
| O=[N+]([O-])c1cc(/C=N/Nc2nc3ccccc3[nH]2)c(O)cc1O | inactive: -26.6% |  |
| CC(=O)Nc1ccc(C(=O)CSc2nnnn2C2CCCC2)cc1 | inactive: -6.79% |  |
| Cn1cccc1C(=O)NCc1ccc(S(N)(=O)=O)cc1 | inactive: 19.6% |  |
| COc1ccc(CN(CC(=O)NC2CCCC2)C(=O)CCC(=O)Nc2nc(C)cs2)cc1 | inactive: 1.51% |  |
| COc1cc(NC(=O)C2CCCCC2)c(OC)cc1NC(=O)c1ccccc1 | inactive: 16.7% |  |
| O=C1c2ccccc2NC(c2ccncc2)N1c1ccccn1 (stereo not drawn) | inactive: 24.7% |  |

| Structure (SMILES) | growth rescue (activation) | Potency |
| --- | --- | --- |
| Cc1ccsc1C(=O)N1CCC1(C)C(=O)NS(=O)(=O)c1cccc(F)c1 (stereo not drawn) | inactive: 0.292% |  |
| COc1ccc(C(=O)Nc2ccc(NC(=O)c3ccco3)cc2)cc1 | inactive: -12.6% |  |
| Cc1cccc(C(=O)Nc2ccc(N3CCN(C(=O)c4ccco4)CC3)cc2)c1 | inactive: 17% |  |
| Cc1cc(NC(=O)CSc2nc3cc(Cl)ccc3o2)no1 | inactive: 21.6% |  |
| Cc1ccccc1N1CCN(C2CCCN(C(=O)CCn3cnnn3)C2)CC1 (stereo not drawn) | inactive: 3.06% |  |
| CCCCN(C(=O)CCC(=O)Nc1cc(C)on1)C(C(=O)NC1CCCC1)c1ccc(F)cc1 (stereo not drawn) | inactive: 5.52% |  |
| NNC(=O)Cn1cnc2ccccc21 | inactive: 11.2% |  |
| COc1ccc(/C=C/C(=O)c2cc(Cl)cc(Cl)c2O)c(OC)c1 | inactive: 14.2% |  |
| Cc1ccc(NC(=S)NNC(=O)c2ccccc2O)c(C)c1 | inactive: 14.1% |  |
| COc1cccc(NC(=O)CN(C)CC(=O)Nc2ccc3c(c2)OCO3)c1 | inactive: 3.42% |  |
| CCOC(=O)N1CCC(N(CCN(C)C)C(=S)Nc2ccc(Oc3ccccc3)cc2)CC1 | inactive: -17.7% |  |
| CN(C)CCCN1C(=O)C(=O)/C(=C(/O)c2ccncc2)C1c1ccccc1 (stereo not drawn) | inactive: 1.64% |  |
| Cc1ccc(S(=O)(=O)N(C)c2ccc(C(=O)NCc3ccccn3)cc2)cc1 | inactive: 2.83% |  |
| CCCN1C(=O)/C(=C\C=C2/Sc3ccccc3N2CCO)SC1=S | inactive: 3.47% |  |
| COC(=O)CN(C(=S)Nc1ccc(F)cc1)C1CC(=O)N(c2ccccc2)C1=O (stereo not drawn) | inactive: -46.4% |  |
| Cc1cccc(N(C)S(=O)(=O)c2ccc3c(c2)NC(=O)CC(=O)N3)c1 | inactive: -1.81% |  |
| Cc1cc(C)nc(Nc2nc(C(N)Cc3ccccc3)cs2)n1 (stereo not drawn) | inactive: 12.4% |  |
| CCn1c(SCc2ccccc2F)nnc1-c1ccncc1 | inactive: 19.7% |  |
| COc1ccc(/C=C(\C#N)C(=O)OCC(=O)N2CC(C)OC(C)C2)cc1 (stereo not drawn) | inactive: 1.18% |  |
| Clc1ccc(OCCCCCN2CCOCC2)cc1 | inactive: 6.44% |  |
